This passage reports cAMP reporter score and surface expression score results from the GPR68 mutational scans of Howard et al. (2025).

Scores with a large standard error are left out. The source holds two more conditions with little spread; they are left out. Read del as a deletion of the residues named and ins as an insertion between two positions. For some of these results: How much ogerin was present is not stated here.

B1: GPR68, Q15743 (parent)
chain: MGNITADNSSMSCTIDHTIHQTLAPVVYVTVLVVGFPANCLSLYFGYLQIKARNELGVYLCNLTVADLFYICSLPFWLQYVLQHDNWSHGDLSCQVCGILLYENIYISVGFLCCISVDRYLAVAHPFRFHQFRTLKAAVGVSVVIWAKELLTSIYFLMHEEVIEDENQHRVCFEHYPIQAWQRAINYYRFLVGFLFPICLLLASYQGILRAVRRSHGTQKSRKDQIQRLVLSTVVIFLACFLPYHVLLLVRSVWEASCDFAKGVFNAYHFSLLLTSFNCVADPVLYCFVSETTHRDLARLRGACLAFLTCSRTGRAREAYPLGAPEASGKSGAQGEEPELLTKLHPAFQTPNSPGSGGFPTGRLA

Variants of B1 are the subject of data set [1]. The data set is described as follows: cAMP reporter score (Enrich2 score, wild type = 0); higher = more signal; HEK293T, FACS bins.
Data set [2] covers variants of B1. Nature of the data set: surface expression score (Enrich2 score, wild type = 0); higher = more signal; HEK293T, FACS bins.

Take D296C: the cAMP reporter score in data set [1] (pH 5.5) is 0.887; in data set [1] (pH 6) it was -0.146; in data set [1] (pH 6, modulator: ogerin), 0.185; in data set [1] (pH 6.5, modulator: ogerin), 0.079.
As for D296T, the cAMP reporter score in data set [1] (pH 5.5) was -0.262; in data set [1] (pH 6) it was -0.44; in data set [1] (pH 6, modulator: ogerin) it was 0.423; in data set [1] (pH 6.5, modulator: ogerin), -1.22. The surface expression score in data set [2] is -0.672.
D296W: the cAMP reporter score in data set [1] (pH 5.5) is 0.858; in data set [1] (pH 6), -0.547; in data set [1] (pH 6, modulator: ogerin) it was 1.02; in data set [1] (pH 6.5, modulator: ogerin), -0.045. Also, the surface expression score in data set [2] was -0.042.
On to D296A, for which the cAMP reporter score is -0.908 in data set [1] (pH 5.5); -1.53 in data set [1] (pH 6); -0.096 in data set [1] (pH 6, modulator: ogerin); 0.034 in data set [1] (pH 6.5, modulator: ogerin). For the same variant, the surface expression score in data set [2] is -1.64.
With D296E, the cAMP reporter score was -0.194 in data set [1] (pH 5.5); -0.333 in data set [1] (pH 6, modulator: ogerin); 1.04 in data set [1] (pH 6.5, modulator: ogerin). The surface expression score in data set [2] is -1.08.
Taken in the same sequence, the figures for D296S were -0.013, 0.352, -0.712 and -0.611.
With D296R, the cAMP reporter score was found to be 0.313 in data set [1] (pH 5.5); 1.62 in data set [1] (pH 6); 2.19 in data set [1] (pH 6, modulator: ogerin); 1.46 in data set [1] (pH 6.5, modulator: ogerin). Also, in data set [2], the surface expression score was determined as 1.81.
Consider D296Y, for which the cAMP reporter score was 0.054 in data set [1] (pH 5.5); -1.12 in data set [1] (pH 6); 0.492 in data set [1] (pH 6, modulator: ogerin); -0.104 in data set [1] (pH 6.5, modulator: ogerin).
As to D296K, the cAMP reporter score in data set [1] (pH 5.5) is -0.425; in data set [1] (pH 6, modulator: ogerin), 0.283; in data set [1] (pH 6.5, modulator: ogerin) it was 3.38. In data set [2], the surface expression score is -1.
On to D296I, for which the cAMP reporter score was -1.01 in data set [1] (pH 5.5); -0.322 in data set [1] (pH 6); 0.336 in data set [1] (pH 6, modulator: ogerin); -0.427 in data set [1] (pH 6.5, modulator: ogerin). For the same variant, in data set [2], the surface expression score was -0.661.
Take D296G: the cAMP reporter score in data set [1] (pH 5.5) amounted to 0.734; in data set [1] (pH 6, modulator: ogerin), 0.841; in data set [1] (pH 6.5, modulator: ogerin) it was 0.569. Also, the surface expression score in data set [2] was -0.913.
Consider D296P, for which the cAMP reporter score in data set [1] (pH 5.5) is -0.628; in data set [1] (pH 6) it was -0.82; in data set [1] (pH 6, modulator: ogerin), -0.734; in data set [1] (pH 6.5, modulator: ogerin) it was -0.765. For the same variant, the surface expression score in data set [2] was 0.211.
With D296F, the cAMP reporter score in data set [1] (pH 5.5) is -0.535; in data set [1] (pH 6), -2.02; in data set [1] (pH 6, modulator: ogerin) it was -0.165; in data set [1] (pH 6.5, modulator: ogerin), -1. The surface expression score in data set [2] is -1.13.
For R301K, the cAMP reporter score in data set [1] (pH 5.5) came out at 1.04; in data set [1] (pH 6, modulator: ogerin), 1.26. Also, the surface expression score in data set [2] came to 0.205.
As for R301S, the cAMP reporter score in data set [1] (pH 5.5) was -0.71; in data set [1] (pH 6), 0.302; in data set [1] (pH 6, modulator: ogerin), -0.451; in data set [1] (pH 6.5, modulator: ogerin) it was 0.092. Moreover, the surface expression score in data set [2] is 0.108.
Regarding R301Y, the cAMP reporter score was determined as 1.21 in data set [1] (pH 5.5); 0.717 in data set [1] (pH 6); 0.804 in data set [1] (pH 6, modulator: ogerin); 1.17 in data set [1] (pH 6.5, modulator: ogerin). For the same variant, in data set [2], the surface expression score was found to be 0.37.
On to R301G, for which the cAMP reporter score in data set [1] (pH 5.5) was 0.306; in data set [1] (pH 6), -0.7; in data set [1] (pH 6, modulator: ogerin), 0.641; in data set [1] (pH 6.5, modulator: ogerin), 0.89. In data set [2], the surface expression score was -0.165.
With R301F, the cAMP reporter score is 0.839 in data set [1] (pH 5.5); 0.193 in data set [1] (pH 6); 0.024 in data set [1] (pH 6, modulator: ogerin); 0.893 in data set [1] (pH 6.5, modulator: ogerin). The surface expression score in data set [2] turned out to be 0.446.
As to R301P, the cAMP reporter score in data set [1] (pH 5.5) was 1.03; in data set [1] (pH 6), 0.019; in data set [1] (pH 6, modulator: ogerin), 0.911; in data set [1] (pH 6.5, modulator: ogerin), 0.476. The surface expression score in data set [2] was 0.437.
Take R301W: the cAMP reporter score is 0.137 in data set [1] (pH 5.5); -0.267 in data set [1] (pH 6); 0.219 in data set [1] (pH 6, modulator: ogerin); 0.764 in data set [1] (pH 6.5, modulator: ogerin). Further, the surface expression score in data set [2] came out at 0.198.
In the case of R301I, the cAMP reporter score was 0.519 in data set [1] (pH 5.5); 0.217 in data set [1] (pH 6); 0.201 in data set [1] (pH 6, modulator: ogerin); -0.514 in data set [1] (pH 6.5, modulator: ogerin).
As for R301M, the cAMP reporter score in data set [1] (pH 5.5) was 0.038; in data set [1] (pH 6), -0.009; in data set [1] (pH 6, modulator: ogerin) it was -0.076; in data set [1] (pH 6.5, modulator: ogerin), 0.028. Further, the surface expression score in data set [2] is -0.406.
As to R301C, the cAMP reporter score in data set [1] (pH 5.5) is -0.828; in data set [1] (pH 6), 0.279; in data set [1] (pH 6, modulator: ogerin), -0.636; in data set [1] (pH 6.5, modulator: ogerin), -0.413. The surface expression score in data set [2] is -0.526.
Regarding R301V, the cAMP reporter score in data set [1] (pH 5.5) is 0.626; in data set [1] (pH 6), -0.82; in data set [1] (pH 6, modulator: ogerin), 0.425; in data set [1] (pH 6.5, modulator: ogerin) it was -0.078. For the same variant, the surface expression score in data set [2] is -0.18.
Taken in the same sequence, the figures for R301A were -0.791, -0.469, -0.721, -0.583 and -1.09.
As to R301E, the cAMP reporter score in data set [1] (pH 5.5) was 0.121; in data set [1] (pH 6) it was -0.038; in data set [1] (pH 6.5, modulator: ogerin) it was -0.781. The surface expression score in data set [2] was -1.15.
As to R301N, the cAMP reporter score is -0.577 in data set [1] (pH 5.5); -0.997 in data set [1] (pH 6); -1.49 in data set [1] (pH 6, modulator: ogerin). Besides, in data set [2], the surface expression score was -1.26.
R301D: the cAMP reporter score is -0.348 in data set [1] (pH 5.5); -0.428 in data set [1] (pH 6); -1.12 in data set [1] (pH 6, modulator: ogerin); -0.656 in data set [1] (pH 6.5, modulator: ogerin). Moreover, the surface expression score in data set [2] was -0.935.
Turning to R301Q, the cAMP reporter score was -0.047 in data set [1] (pH 5.5); -0.708 in data set [1] (pH 6); 0.652 in data set [1] (pH 6, modulator: ogerin); -0.378 in data set [1] (pH 6.5, modulator: ogerin). In data set [2], the surface expression score is -1.06.
Take R301L: the cAMP reporter score in data set [1] (pH 5.5) is 1.18; in data set [1] (pH 6, modulator: ogerin), 0.409; in data set [1] (pH 6.5, modulator: ogerin), -0.248. In addition, the surface expression score in data set [2] is -0.326.
On to R301T, for which the cAMP reporter score in data set [1] (pH 5.5) was 0.095; in data set [1] (pH 6) it was -0.491; in data set [1] (pH 6, modulator: ogerin), 0.848; in data set [1] (pH 6.5, modulator: ogerin) it was 0.09.
As to R301H, the cAMP reporter score is 0.236 in data set [1] (pH 5.5); 0.26 in data set [1] (pH 6, modulator: ogerin); -0.44 in data set [1] (pH 6.5, modulator: ogerin). The surface expression score in data set [2] is -0.471.
As to D296_L297insGSG, the cAMP reporter score in data set [1] (pH 5.5) is -0.365; in data set [1] (pH 6), -0.518; in data set [1] (pH 6, modulator: ogerin) it was -1.05; in data set [1] (pH 6.5, modulator: ogerin), -0.985. In addition, in data set [2], the surface expression score stood at 2.2.
